The supplement of paper PMC4967469
The IC50 comes from the fitted curve, where viability falls to half of the control; a fit beyond the top or the lowest dose is shown as a bound at that dose. For AUC the same curve is integrated over the 256-fold range of doses and scaled to a fraction; the more sensitive the line, the further below 1. For some of these results: The top dose, if marked as inferred, comes from the curve model; the source does not state it.

Legend:
Experiment in all cases: Viability of human cancer cell lines after 72 h of drug (GDSC screen)
[1] = compound: C=C(c1ccc(C(=O)O)cc1)c1cc2c(cc1C)C(C)(C)CCC2(C)C [Bexarotene]; details: top dose 8 µM
Experimental: (§1)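 Human cancer cell lines in 384-well plates, medium with 10% serum, drug for 72 h over a 256-fold dose range (nine 2-fold or five 4-fold steps up to the top dose). Adherent lines were fixed and stained with the nucleic acid dye Syto60, suspension lines read with resazurin; signal relative to control wells, capped at 0 and 100%. One two-parameter sigmoid per drug and line, fitted in a mixed model over all curves with the slope shared within a line.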

[2] = compound: NC(=O)Nc1cc(-c2cccc(F)c2)sc1C(=O)N[C@H]1CCCNC1 [AZD7762]; details: top dose 2 µM
Experimental: as §1

[3] = compound: Oc1nc(-c2ccc(C(F)(F)F)cc2)nc2c1CSCC2 [XAV 939]; details: top dose 5 µM; top dose inferred
Experimental: as §1

[4] = compound: O=C(O)c1ccc(-c2c[nH]c3ncc(-c4ccccc4)cc23)cc1C1CCCC1 [GSK-650394]; details: top dose 16 µM; top dose inferred
Experimental: as §1

[5] = compound: COc1ccc(C(=O)CC2(O)C(=O)Nc3c(Cl)ccc(Cl)c32)cc1 [YK 4-279]; details: top dose 10 µM
Experimental: as §1

[6] = compound: COc1cc(C(=O)NC2CCN(C)CC2)ccc1Nc1ncc2c(n1)N(C1CCCC1)C(C)CC(=O)N2C [NPK76-II-72-1]; details: top dose 10.24 µM; top dose inferred
Experimental: as §1

[7] = compound: COc1cc([C@@H]2c3cc4c(cc3[C@@H](O[C@@H]3O[C@@H]5CO[C@@H](C)O[C@H]5[C@H](O)[C@H]3O)[C@H]3COC(=O)[C@H]23)OCO4)cc(OC)c1O [Etoposide]; details: top dose 16 µM
Experimental: as §1

[8] = compound: Cc1ccc2nc(NCCN)c3ncc(C)n3c2c1 [BMS-345541]; details: top dose 16 µM
Experimental: as §1

Cell Line | AUC [1] | IC50 [1] | AUC [2] | IC50 [2] | AUC [3] | IC50 [3] | AUC [4] | IC50 [4] | AUC [5] | IC50 [5] | AUC [6] | IC50 [6] | AUC [7] | IC50 [7] | AUC [8] | IC50 [8]
HA7-RCC (kidney, adherent) | 0.965 | > 8 µM | 0.72 | 565 nM | 0.94 | > 5 µM | 0.932 | > 16 µM | 0.829 | 7.13 µM | 0.93 | > 10.2 µM | 0.811 | 9.61 µM | 0.894 | > 16 µM
HAL-01 (lymphoblastic leukaemia, suspension) | 0.981 | > 8 µM | 0.48 | 111 nM | 0.978 | > 5 µM | 0.874 | 12.6 µM | 0.658 | 1.62 µM | 0.897 | 10.2 µM | 0.681 | 2.99 µM | 0.704 | 3.47 µM
HARA (lung squamous cell carcinoma, adherent) | 0.983 | > 8 µM | 0.456 | 93 nM | 0.956 | > 5 µM | 0.851 | 15.6 µM | 0.688 | 2.31 µM | 0.91 | > 10.2 µM | 0.766 | 6.86 µM | 0.629 | 2.42 µM
HC-1 (hairy cell leukaemia, suspension) | 0.962 | > 8 µM | 0.836 | 1250 nM | 0.974 | > 5 µM | 0.911 | > 16 µM | 0.7 | 2.22 µM | 0.464 | 0.513 µM | 0.358 | 0.413 µM | 0.877 | 15 µM
HCC38 (breast, adherent) | 0.98 | > 8 µM | 0.767 | 802 nM | 0.953 | > 5 µM | 0.949 | > 16 µM | 0.663 | 1.85 µM | 0.733 | 3.14 µM | 0.641 | 2.54 µM | 0.926 | > 16 µM
HCC70 (breast, adherent) | 0.973 | > 8 µM | 0.686 | 410 nM | 0.987 | > 5 µM | 0.984 | > 16 µM | 0.93 | > 10 µM | 0.901 | > 10.2 µM | 0.969 | > 16 µM | 0.884 | > 16 µM
HCC1143 (breast, adherent) | 0.778 | 4.67 µM | 0.607 | 276 nM | 0.965 | > 5 µM | 0.979 | > 16 µM | 0.798 | 7.11 µM | 0.714 | 3.32 µM | 0.932 | > 16 µM | 0.869 | > 16 µM
HCC1187 (breast, suspension) | 0.967 | > 8 µM | 0.556 | 176 nM | 0.793 | 2.15 µM | 0.972 | > 16 µM | 0.545 | 0.821 µM | 0.761 | 3.47 µM | 0.953 | > 16 µM | 0.841 | 10.3 µM
HCC1395 (breast, adherent) | 0.943 | > 8 µM | 0.61 | 267 nM | 0.972 | > 5 µM | 0.982 | > 16 µM | 0.801 | 6.06 µM | 0.953 | > 10.2 µM | 0.965 | > 16 µM | 0.959 | > 16 µM
HCC1428 (breast, adherent) | 0.909 | > 8 µM | 0.949 | > 2000 nM | 0.986 | > 5 µM | 0.981 | > 16 µM | 0.88 | > 10 µM | 0.979 | > 10.2 µM | 0.967 | > 16 µM | 0.955 | > 16 µM
HCC1500 (breast, adherent) | 0.961 | > 8 µM | 0.955 | > 2000 nM | 0.983 | > 5 µM | 0.986 | > 16 µM | 0.929 | > 10 µM | 0.975 | > 10.2 µM | 0.933 | > 16 µM | 0.87 | 15.8 µM
HCC1569 (breast, adherent) | 0.964 | > 8 µM | 0.861 | > 2000 nM | 0.941 | > 5 µM | 0.915 | > 16 µM | 0.76 | 4.64 µM | 0.91 | > 10.2 µM | 0.665 | 3.37 µM | 0.877 | > 16 µM
HCC1937 (breast, adherent) | 0.961 | > 8 µM | 0.641 | 327 nM | 0.958 | > 5 µM | 0.953 | > 16 µM | 0.888 | > 10 µM | 0.928 | > 10.2 µM | 0.814 | 10.4 µM | 0.932 | > 16 µM
HCC2157 (breast, suspension) | 0.965 | > 8 µM | 0.657 | 348 nM | 0.985 | > 5 µM | 0.832 | 10.9 µM | 0.977 | > 10 µM | 0.987 | > 10.2 µM | 0.847 | 12.6 µM | 0.914 | > 16 µM
HCC2218 (breast, suspension) | 0.984 | > 8 µM | 0.979 | > 2000 nM | 0.981 | > 5 µM | 0.983 | > 16 µM | 0.944 | > 10 µM | 0.981 | > 10.2 µM | 0.96 | > 16 µM | 0.713 | 4.74 µM
HCC-44 (lung adenocarcinoma, adherent) | 0.87 | 7.13 µM | 0.851 | 1470 nM | 0.934 | > 5 µM | 0.615 | 2.05 µM | 0.592 | 1.11 µM | 0.828 | 6.12 µM | 0.555 | 1.41 µM | 0.685 | 3.25 µM
